# About 65 (0.1%) of roughly 45,000 compounds were called active. The call rests on the fitted dose curve; in most records, active means well fitted activation curve with a large enough effect; inconclusive means small, poorly fitted or top-dose-only effect; inactive means no such curve, though single readings can be large or run the other way. The list shows a part of the results.
# Target: Galactocerebrosidase (Homo sapiens) (UniProt P54803)
# Test: A Novel Cell-Based Assay to Identify Small Molecules for B -Galactocerebrosidase; further: 0% is about no effect; nearly all actives have a fitted effect of over 65% in size
# Settings: 145M-Twi-hGALC-G270D cells (Twitcher mouse brain line with human GALC G270D), HMU-beta-Gal fluorescence, 48 h; series mostly up to 57.5 µM; activation: at the top concentration
# Method in brief: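 Fluorogenic HMU-b-Gal hydrolysis (0.1 mM final, pH 5.2 citrate-phosphate with 1 mg/mL sodium taurocholate; carbonate stop buffer) measures mutant GALC activity after compound treatment of live 145M-Twi Twitcher brain cells stably carrying human GALC-G270D, with wild-type GALC line alongside; activation sought.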
# UniProt P54803, sequence (P54803 whole entry, looked up): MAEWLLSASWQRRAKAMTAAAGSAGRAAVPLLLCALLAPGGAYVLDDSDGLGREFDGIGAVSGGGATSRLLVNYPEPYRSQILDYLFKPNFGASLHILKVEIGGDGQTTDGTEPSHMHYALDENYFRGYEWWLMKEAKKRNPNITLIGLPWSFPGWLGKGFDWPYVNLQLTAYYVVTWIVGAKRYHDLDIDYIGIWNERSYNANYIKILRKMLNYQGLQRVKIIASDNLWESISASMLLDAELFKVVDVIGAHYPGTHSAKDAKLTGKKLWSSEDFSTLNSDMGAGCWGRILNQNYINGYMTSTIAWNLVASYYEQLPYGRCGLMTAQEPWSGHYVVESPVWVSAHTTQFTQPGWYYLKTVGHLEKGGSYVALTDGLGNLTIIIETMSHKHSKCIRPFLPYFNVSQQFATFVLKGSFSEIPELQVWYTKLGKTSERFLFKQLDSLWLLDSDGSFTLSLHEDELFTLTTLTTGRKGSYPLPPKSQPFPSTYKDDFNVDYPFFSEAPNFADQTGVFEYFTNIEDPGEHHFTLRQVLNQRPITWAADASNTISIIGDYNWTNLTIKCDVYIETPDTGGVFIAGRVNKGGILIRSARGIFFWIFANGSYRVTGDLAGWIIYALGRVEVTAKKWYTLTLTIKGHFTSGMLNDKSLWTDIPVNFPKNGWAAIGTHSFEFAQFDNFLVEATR
row,Structure (SMILES),activation
1,CCc1ccc(NC(=O)Cn2nnc(C(=O)NCCc3ccccc3)c2N)cc1,inactive: -16.4%
2,CCOc1ccccc1NC(=O)Cn1c(=O)n(CCCCC(=O)NCCCOC)c(=O)c2ccccc21,inactive: 0.184%
3,c1ccc2[nH]ccc2c1,inactive: -11.5%
4,CCc1ccccc1N(C)C(=O)c1cc2c(Cl)nc3ccc(C)cc3c2s1,inactive: -15.1%
5,Cc1ccc2[nH]c3c(=O)n(CC(=O)NCCCN4CCN(c5ccc(F)cc5)CC4)ncc3c2c1,inactive: -18%
6,Cc1cc(C)cc(N(CC(=O)Nc2ccc(C)cc2Cl)S(=O)(=O)c2c(C)[nH]c(=O)[nH]c2=O)c1,inactive: -16.1%
7,COCCCNC(=O)C1CCN(C(=O)c2ccc(-n3ccc4ccccc43)s2)CC1,inactive: -25.7%
8,Cc1ccccc1CNCCSc1nnnn1C,inactive: 2.7%
9,CC1CCN(S(=O)(=O)c2ccc3c(c2)oc(=O)n3CC(=O)N2CCCCC2)CC1,inactive: -10.4%
10,O=C(Nc1ccc(O)c(-c2nc3ccccc3o2)c1)c1ccc(-c2cccc(Cl)c2)o1,inactive: -25.1%
11,Cc1cccc(C)c1NC(=O)c1nc(SC(C)C)ncc1Cl,inactive: -12.5%
12,COc1ccc(NC(=O)CCS(=O)(=O)c2cc3c4c(c2)CCN4C(=O)CC3)cc1OC,inactive: -0.395%
13,COc1cc2c(N3CCN(C(=O)Nc4ccc(OC(C)C)cc4)CC3)ncnc2cc1OCCCN1CCCCC1,inactive: -9.21%
14,CCC(C(=O)Nc1ccc(F)cc1F)n1nc(-c2ccccc2)c2c(c1=O)CCCC2 (stereo not given),inactive: -14.4%
15,Cc1ccccc1Nc1c(-c2ccc(O)cc2)nc2c(C)cccn12,inactive: -36.6%
16,NC(=O)c1cn(Cc2c(F)cccc2F)nn1,inactive: -11.6%
17,COc1cccc(CNC(=O)CSc2nnc(C)c3c(C)n(-c4ccccc4)nc23)c1,inactive: -7.67%
18,O=C(c1cccn1-c1nnc(N2CCCC2)s1)N1CCN(c2ccc(F)cc2)CC1,inactive: -16.3%
19,Cc1cccc(OCC(=O)NCc2ccc3c(c2)CCN3C(=O)c2ccc(Cl)cc2)c1,inactive: -6.05%
20,CCOc1ccc(NC(=O)c2c(NC(=O)c3ccncc3)sc3c2CCC(C(C)(C)C)C3)cc1 (stereo not given),inactive: -5.87%
21,COc1ccc(-c2nnc(SCC(=O)Nc3ccc(C)c(Cl)c3)nc2-c2ccc(OC)c(OC)c2)cc1OC,inactive: -21.8%
22,O=C(c1ccc(F)cc1)N1CCN(CCc2ccncc2)CC1,inactive: 11.8%
23,COc1ccc(NC(=O)c2ccco2)cc1NC(=O)COc1cc(C)ccc1C(C)C,inactive: -19.6%
24,CC(=O)N1c2ccccc2CC1C(=O)N1CCN(c2cc(Cl)ccc2C)CC1 (stereo not given),inactive: -17.4%

row,Structure (SMILES),activation
1,COc1ccc(Cl)cc1S(=O)(=O)N1CCC(c2ccncc2)CC1,inactive: -13.5%
2,COc1cccc(/C=C/c2nc3ccccc3c(=O)n2-c2ccc(C)c(C)c2)c1OC,inactive: -0.582%
3,Cc1nc(N)c(S(=O)(=O)c2ccccc2)c(Nc2ccc(Br)cc2)n1,inactive: -12.1%
4,O=C(Nc1ccc(F)cc1)Nc1nnc(SCC(=O)N2CCCCC2)s1,inactive: -8%
5,Cc1cccc(CNC(=O)CN2CC(C)Sc3ccccc32)c1 (stereo not given),inactive: -21.6%
6,O=C(Cn1cc(SCc2ccc(Cl)cc2)c2ccccc21)N1CCCC1,inactive: 5.15%
7,CC(=O)Nc1ccc(NC(=O)CN2C(=O)CCc3cc(S(=O)(=O)N4CCCCC4)ccc32)cc1,inactive: -7.17%
8,COc1ccc(C)cc1NS(=O)(=O)c1cc(Br)cc2c1N(C(C)=O)C(C)C2 (stereo not given),inactive: -26.6%
9,Cc1c(C(=O)N(Cc2cccc(Cl)c2)Cc2ccco2)oc2ccccc12,inactive: -3.16%
10,Cc1c(Cl)cccc1-n1nnc(-c2nc(-c3ccc4c(c3)OCO4)no2)c1C,inactive: -16.2%
11,COc1cccc(NC2=CC(c3ccc(C(C)C)cc3)N(c3cccc(OC)c3)C2=O)c1 (stereo not given),inactive: -9.36%
12,COc1ccc(NC(=O)c2nn(C)c3c2CSc2ccc(C)cc2-3)cc1OC,inactive: -28.8%
13,COC(=O)c1sccc1S(=O)(=O)N(CC(=O)Nc1cc(C)cc(C)c1)c1ccc(Cl)cc1,inactive: 16%
14,COc1ccc(-n2c(SCC(=O)NCc3ccccc3)nc3ccsc3c2=O)cc1,inactive: 3.32%
15,COc1ccc(CNC(=O)CN2C(=O)COc3ccc(S(=O)(=O)N4CCCCCC4)cc32)cc1,inactive: -0.164%
16,COCCOC(=O)Cn1nnc2sc(-c3ccccc3)cc2c1=O,inactive: -10.5%
17,CCOC(=O)c1ccc(NC(=O)CC2Nc3cc(C)c(C)cc3NC2=O)cc1 (stereo not given),inactive: -23.5%
18,COc1ccc(CNC(=O)c2ccc(CNS(=O)(=O)c3ccc(OC)cc3)cc2)cc1,inactive: -14.9%
19,COCCCNC(=O)c1ccc(Cn2c(=O)c3ccccc3n(Cc3ccc(C)cc3)c2=O)cc1,inactive: -14.4%
20,Cc1nn(S(=O)(=O)c2ccc(C(C)C)cc2)c(C)c1S(=O)(=O)N1CCCCC1,inactive: -7.82%
21,CCOc1ccc(-n2c(=O)c3c4c(sc3n(CC(=O)NCCCOC)c2=O)CCCCC4)cc1,inactive: 15.7%
22,CCc1cccc(C)c1NS(=O)(=O)c1ccc2c(c1)NC(=O)C(C)C(=O)N2 (stereo not given),inactive: -15.6%
23,CC(=O)N1CCCc2cc(S(=O)(=O)N3CCCC(C(=O)N4CCN(c5ccccc5F)CC4)C3)ccc21 (stereo not given),inactive: -18.9%
24,Cc1ccc2c(c1)-c1c(cnn1CC(=O)N1CCN(c3cccc(C(F)(F)F)c3)CC1)CO2,inactive: -11.4%

row,Structure (SMILES),activation
1,COc1ccc(CC(=O)NCC(c2ccc(N(C)C)cc2)N2CCOCC2)cc1OC (stereo not given),inactive: -14.5%
2,CCCCNC(=O)c1cnn2c(C)c(Cc3c(C)cc(C)cc3C)c(C)nc12,inactive: -27.5%
3,Cc1ccccc1OCc1ccc(-c2nc(C#N)c(N3CCCCC3)o2)o1,inactive: -7.13%
4,COc1cc(NC(=O)Cn2c(=O)n(-c3ccccc3)c(=O)c3c4c(sc32)CCCC4)cc(OC)c1,inactive: -9.73%
5,CC(C)COc1ccc(C(=O)Nc2scc(-c3ccc(Br)cc3)c2C(=O)OC(C)C)cc1,inactive: -26.2%
6,CSc1ccc(CNC(=O)c2ccc3c(c2)N(C)C(=O)C2CCCCN32)cc1 (stereo not given),inactive: -23%
7,CCOC(=O)c1cc2c(=O)n3ccccc3nc2n(Cc2ccco2)c1=NC(=O)c1ccc(OC)cc1,inactive: -4.26%
8,CCN(CC)c1ccc2cc(-c3nc(-c4ccccc4)no3)c(=O)oc2c1,inactive: -1.86%
9,O=C(NCc1cccc(Cl)c1)C1CCN(c2nn3cc(-c4ccc(F)cc4)nc3s2)CC1,inactive: -20.7%
10,COc1ccc(-c2cn3nc(N4CCCC(C(=O)Nc5cc(Cl)ccc5OC)C4)sc3n2)cc1 (stereo not given),inactive: -9.57%
11,Cc1cc(C)c(NC(=O)Cn2nnc(C(=O)NCc3cccs3)c2N)c(C)c1,inactive: -12.2%
12,Cc1ccc(CNC(=O)c2c(-c3ccc(F)cc3F)noc2C)o1,inactive: -2.74%
13,CCOc1ccc(-n2nc(CO)c(C(=O)NCC(c3ccccc3)c3ccccc3)n2)cc1,inactive: -10.9%
14,COc1ccc(C(=O)COC(=O)CCCC(=O)Nc2ccc(C(C)=O)cc2)cc1,inactive: -10.8%
15,COc1ccc(CCN(C)CCCN2CCc3cc(OC)c(OC)cc3CC2=O)cc1OC,inactive: -15.1%
16,CNS(=O)(=O)c1cn(CC(=O)N2CCN(c3ccc(Cl)cc3)CC2)cc1S(=O)(=O)NC,inactive: -9.79%
17,Cc1nc2cccnc2n1C1CCN(C(=O)Nc2ccccc2C(F)(F)F)CC1,inactive: -17.5%
18,O=c1ccc2cc(S(=O)(=O)NCc3ccc(Cl)cc3)ccc2[nH]1,inactive: -16.3%
19,O=C(NCc1ccccc1)c1cccc(N2CCCS2(=O)=O)c1,inactive: -13.4%
20,COc1ccc(-c2cn3nc(SCC(=O)Nc4ccccc4F)ccc3n2)cc1,inactive: -4.15%
21,COC(=O)c1scc(-c2ccc(C)cc2)c1S(=O)(=O)Nc1ccc(NC(C)=O)cc1,inactive: -13%
22,Cc1cc(C)c(NC(=O)COCc2cc(-c3cccs3)on2)c(C)c1,inactive: -7.48%
23,Cc1cccc(OCC(=O)Nc2cccc(C(=O)OCc3cc(=O)n4c(C)csc4n3)c2)c1,inactive: -3.16%
24,O=C(CSc1nccn1Cc1ccc(F)cc1)NCc1ccccc1,inactive: -4.14%

row,Structure (SMILES),activation
1,COc1ccc(S(=O)(=O)N(CC(=O)NCCSc2ccccc2)c2ccc(Cl)cc2)cc1,inactive: -34.8%
2,COc1ccc(-n2ncc(C(=O)NCc3ccc4c(c3)OCO4)c2C2CCN(C(=O)OC(C)(C)C)CC2)cc1,inactive: 0.403%
3,CCc1cccc(N2C(=O)CSC23C(=O)N(Cc2ccccc2F)c2ccccc23)c1 (stereo not given),inactive: -45.1%
4,CCN(CC)c1ccc(NC(=O)CN2C(=O)c3cccnc3Oc3ccccc32)c(C)c1,inactive: 4.17%
5,Cc1ccc(CCNC(=O)c2ccc3c(c2)N(Cc2cc(C)ccc2C)C(=O)c2ccccc2S3=O)cc1 (stereo not given),inactive: -4.76%
6,Cc1ccc(/C=C/c2onc(C)c2S(=O)(=O)N2CCC(C(=O)NCc3ccco3)CC2)cc1,inactive: 3.19%
7,CCOC(=O)c1cccc(NS(=O)(=O)c2cc(Br)cc3c2N(C(=O)C2CC2)CC3)c1,inactive: -6.2%
8,COc1ccc2c(c1)NC(c1ccc(F)cc1)=NC(c1ccc(F)cc1)=N2,inactive: -4.36%
9,COc1ccc(CNC(=O)CCS(=O)(=O)c2cc(Br)cc3c2N(C(=O)C2CC2)CC3)cc1,inactive: -8.34%
10,COC(=O)c1ccc(OCC2c3cc(OC)c(OC)cc3CCN2C(=O)c2cccc(C)c2)cc1 (stereo not given),inactive: -21.8%
11,COc1ccc(NC(=O)C2CCN(C3=NS(=O)(=O)C(c4ccc(C)c(C)c4)=C3C)CC2)cc1OC,inactive: -9.3%
12,COc1cccc(N2CCN(C(=O)CN3CCSc4ccc(S(=O)(=O)N(C)C)cc43)CC2)c1,inactive: -18.7%
13,COc1ccc(Nc2ncnc3onc(C)c23)cc1Cl,inactive: -27.2%
14,CCCSCCCNC(=O)C1CCCN(C(=O)c2cnn(-c3ccccc3)c2-n2cccc2)C1 (stereo not given),inactive: -12.1%
15,O=C(Cn1nc(Cc2cccnc2)c2ccccc2c1=O)N1CCN(c2ccc(F)cc2)CC1,inactive: -8.69%
16,COc1cccc(CNC(=O)Cn2c(=O)n3nc(-c4cccc(C)c4)nc3c3ccccc32)c1,inactive: -11.4%
17,CCCCN(Cc1ccccc1)S(=O)(=O)c1ccc2c(c1)CCN2C(=O)C1CCC1,inactive: -4.23%
18,Cc1ccc(NC(=O)[C@H](CSCc2ccccc2)N2Cc3ccccc3C2=O)cc1,inactive: -11.2%
19,COc1ccc(OC)c(CNC(=O)CCS(=O)(=O)c2ccc3c(c2)oc(=O)n3C)c1,inactive: -23.9%
20,CCN(C(=O)C(NS(=O)(=O)c1cccc2nsnc12)c1ccccc1)c1ccccc1 (stereo not given),inactive: -15.2%
21,COc1ccc(-c2ccnc3c2c(=O)n(C)c(=O)n3C)cc1OC,inactive: -12.7%
22,COCCCNC(=O)CCCN1C(=O)CCn2nc(-c3cn(C)c4ccccc34)cc21,inactive: -6.67%
23,Cc1ccc(C)c(N2CCN(CCCNc3ncnc4onc(-c5ccc(Cl)cc5)c34)CC2)c1,inactive: -11.9%
